Assay results reported in PubChem BioAssay AID1345082 (National Center for Advancing Translational Sciences (NCATS), 2018).
The whole screen tested about 94,000 compounds, of which about 4,000 (4.3%) were called active. The shares of active, inactive and inconclusive entries below differ from those in the screen. Calls come from the whole dose curve; as a rule, active = well fitted inhibition curve with a large enough effect; inconclusive = small, poorly fitted or top-dose-only effect; inactive = no such curve, though single readings can be large or run the other way. Potencies beside an inconclusive call are fits to weak or partial responses and may not hold up.

Test: Cytotoxic Profiling in NIH 3T3 Cell Line of Diverse Libraries Using Quantitative High-Throughput Screening; note: nearly all actives have a fitted effect of over 55% in size
Settings: NIH 3T3 viability, CellTiter-Glo ATP luminescence, 48-72 h; series mostly up to 96.7 µM
Method in brief: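 Cytotoxicity was measured by CellTiter-Glo ATP luminescence after 48 or 72 h compound exposure at 37 °C. Mouse NIH 3T3 fibroblasts were seeded at 400 cells/well and dosed by 23 nL pin transfer.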
Potency is the fitted concentration of half-maximal effect; tags give direction and shape of the fitted curve.

Structure (SMILES)	Potency
O=C(C1CCCCN1Cc1ccc(-c2cccs2)cc1)N1CCCCC1 (stereo not drawn)	inconclusive: 50.1 µM [inhibitor, partial curve, poor fit]
COCCNC(=O)[C@H]1C[C@H](Oc2ccccc2)CN1C(=O)NC1CCCCC1	inconclusive: 50.1 µM [inhibitor, partial curve, poor fit]
Fc1ccc(CNC[C@H]2Cn3c(-c4ccc5c(c4)OCCO5)cnc3CO2)cc1	inconclusive: 89.1 µM [inhibitor, partial curve, poor fit]
O=C(c1ccccn1)N1CCC2(COc3ncccc3S(=O)(=O)N2)C1 (stereo not drawn)	inactive
COc1ccccc1Nc1ncc2c(n1)CN(C(=O)c1ccccc1)CCN2	inconclusive: 89.1 µM [inhibitor, partial curve]
Cc1ccc(C(=O)NC(C(=O)N2CCCCC2)C2CCN(C(=O)C(C)C)CC2)cc1 (stereo not drawn)	inconclusive: 70.8 µM [inhibitor, single point]
Cc1noc(C)c1CCC(=O)NC1CCc2nn(CC3CC3)c(=O)n2CC1 (stereo not drawn)	inactive
CC1CCN(CC2CCCCCN2C(=O)c2ccnn2C)CC1 (stereo not drawn)	inactive
CC(C)(C)c1ccc(-c2cc(C[C@H]3CNCC[C@H]3CC(=O)NCc3cccnc3)no2)cc1	active: 20 µM
CC(C)C[C@@H]1N[C@H](C(=O)N2CCOCC2)Cc2cn(Cc3cccnc3)c3cccc1c23	inactive
CN(C)c1ncc2c(n1)C(C)(C(=O)NCc1cccc(F)c1)CCC2 (stereo not drawn)	inconclusive: 112 µM [inhibitor, single point]
C[C@@H](NC(=O)COc1ccccc1)c1c(-c2ccc(Cl)cc2)noc1C(=O)O	inconclusive: 112 µM [inhibitor, single point]
Cc1ccccc1C(=O)N1CCN(c2ccnc3ccnn23)CC1	inconclusive: 89.1 µM [inhibitor, partial curve, poor fit]
Cc1nc2c(c(-c3ccc(O)cc3)n1)CN(CCC(C)C)CCC2	inconclusive: 89.1 µM [inhibitor, partial curve, poor fit]
O=C(CCc1ccccc1)N1CCNc2cnc(Nc3cccnc3)nc2C1	inconclusive: 56.2 µM [inhibitor, partial curve, poor fit]
COc1ccccc1-c1cc(C(=O)NCc2ccccc2Cl)nn2cnnc12	inconclusive: 44.7 µM [inhibitor, partial curve, poor fit]
COCCNC(=O)c1ccc2nnc(-c3ccc(Cl)cc3)n2c1	inactive
CC(C)(C)CNC1(Cc2cc(COc3ccccc3)on2)COC1	inconclusive: 63.1 µM [inhibitor, partial curve, poor fit]
